Experimental findings from PubChem BioAssay AID1745853 (National Center for Advancing Translational Sciences (NCATS), 2022) are described below.

Each structure is given as a SMILES string. The list shows a part of the results. These are further read-outs of the screen, such as a control signal, another cell line or another target. No call is given for them.

Test in all cases: Primary Screen for Target Class Profiling of Small Molecule Inhibitors of Methyltransferases
The target in assay [1] is Glycine N-methyltransferase (Homo sapiens) (UniProt Q14749). The note with it: purified enzyme, MTase-Glo SAH luminescence; measured here: GNMT inhibition; at 40 µM; stronger effect = lower value. The method, boiled down: (§1)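 Each enzyme was assayed with SAM and its substrate. SAH formation detected by MTase-Glo luminescence; single-point 40 uM screen[…].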
For assay [2], the target named is Guanidinoacetate N-methyltransferase (Homo sapiens) (UniProt Q14353). To be noted: purified enzyme, MTase-Glo SAH luminescence; measured here: GAMT inhibition; at 40 µM; stronger effect = lower value. The method, boiled down: as §1
Assay [3] deals with Histamine N-methyltransferase (Homo sapiens) (UniProt P50135). To be noted: purified enzyme, MTase-Glo SAH luminescence; measured here: HNMT inhibition; at 40 µM; stronger effect = lower value. The method, boiled down: as §1
The target of assay [4] is Nicotinamide N-methyltransferase (Homo sapiens) (UniProt P40261). The note with it: purified enzyme, MTase-Glo SAH luminescence; measured here: NNMT inhibition; at 40 µM; stronger effect = lower value. In short, it runs like this:
as §1

Assay [5] deals with Phenylethanolamine N-methyltransferase (Homo sapiens) (UniProt P11086). To be noted: purified enzyme, MTase-Glo SAH luminescence; measured here: PNMT inhibition; at 40 µM; stronger effect = lower value. The method, boiled down: as §1
% is scaled to controls: 0 for no effect and ±100 for the full control effect.

`Cc1nc(-c2ccc(OC3CCN(C(=O)NC4CCCCC4)C3)cc2)no1` (stereo not given): the activity change, negative = inhibition in assay [1] was -2.09%; in assay [2], -2.72%; in assay [3] it was -1.02%; in assay [4], -3.89%; in assay [5] it was -2.87%.
For the compound `C=CCc1ccc(O[C@@H]2O[C@H](CO[C@@H]3O[C@H](CO)[C@@H](O)[C@H](O)[C@H]3O)[C@@H](O)[C@H](O)[C@H]2O)c(O)c1`, the activity change, negative = inhibition was -1.86% in assay [1]; -22.9% in assay [2]; 0.083% in assay [3]; -42.4% in assay [4]; -5.62% in assay [5].
As for `CCC(C)NC(=O)c1ccc2c(=O)n(C(C)C)c3nn(Cc4ccccc4Cl)c(=O)n3c2c1` (stereo not given), the activity change, negative = inhibition in assay [1] was 1.58%; in assay [2], 2.12%; in assay [3] it was 2.07%; in assay [4] it was 5.03%; in assay [5], 2.6%.
With `CN1C(=O)c2cc(C(=O)NCCN3CCOCC3)nn2CC1(C)C(=O)NCc1ccccc1` (stereo not given), the activity change, negative = inhibition in assay [1] was -3.24%; in assay [2], -3.74%; in assay [3], 1.68%; in assay [4] it was -9.15%; in assay [5], -5.68%.
For the compound `CCOC(=O)c1cc2n(n1)CC(C)(C(=O)NCc1ccccc1OC)N(c1ccccc1C)C2=O` (stereo not given), the activity change, negative = inhibition was 3.84% in assay [1]; 0% in assay [2]; 7.95% in assay [3]; 3.8% in assay [4]; 2.65% in assay [5].
Regarding `CC(C)N1CCN(C(=O)C23CCCC=C2N(c2ccccc2)C(=O)CC3)CC1` (stereo not given), the activity change, negative = inhibition in assay [1] was -4.8%; in assay [2] it was -7.93%; in assay [3] it was -1.55%; in assay [4] it was -6.84%; in assay [5], -8.01%.
As for `COc1cc(Nc2ncc3c(n2)-c2ccc(Cl)cc2C(c2c(F)cccc2OC)=NC3)ccc1C(=O)O`, the activity change, negative = inhibition in assay [1] was -73.7%; in assay [2], -3.78%; in assay [3] it was -60.9%; in assay [4], -38.3%; in assay [5] it was -11.4%.
For `CCN(CC)c1ccc2c(O)c(C=Nc3ccc(CC(=O)O)c(-c4c5c(nc6ccccc46)CCC(C(=O)NN)C5)c3)c(=O)oc2c1` (stereo not given), the activity change, negative = inhibition was -16.1% in assay [1]; -25.7% in assay [2]; -37.8% in assay [3]; -56.8% in assay [4]; -31.8% in assay [5].
For `CC1CCCCC1NC(=O)C1(C)Cn2c(cc3occc32)C(=O)N1CCCc1ccccc1` (stereo not given), in that order: 6.35%, 6.35%, 8.15%, 6.26% and 1.77%.
In the case of `CC(C)c1cc2c(c(O)c1O[C@@H]1O[C@H](CO)[C@@H](O)[C@H](O)[C@H]1O)CC1(O)CCC(O)C(C)(C)C1CC2` (stereo not given in full), the activity change, negative = inhibition in assay [1] was -4.1%; in assay [2] it was -1.23%; in assay [3], 8.38%; in assay [4] it was -12.1%; in assay [5], 1.39%.
Turning to `CC1CC(C)CN(S(=O)(=O)c2ccc3c(c2)oc(=O)n3CC(=O)NCc2cccnc2)C1` (stereo not given), the activity change, negative = inhibition in assay [1] is -1.51%; in assay [2], 0%; in assay [3], 3.86%; in assay [4] it was 6.73%; in assay [5], -4.44%.
As to `CCc1ccc(/C=C2/SC(=S)NC2=O)cc1`, the activity change, negative = inhibition in assay [1] is -77.2%; in assay [2] it was 7.8%; in assay [3], -6.18%; in assay [4] it was -22.5%; in assay [5], 3.42%.
In the same order, the values of `Cc1cnc(C(=O)N2CCC(c3nnc(CN4CCCC4)n3C3CC3)CC2)cn1` are -2.37%, -0.978%, -1.44%, -7.22% and 11.6%.
In the same order, the values of `Cc1ccc(Nc2nccc(N(C)c3ccc4c(C)n(C)nc4c3)n2)cc1S(N)(=O)=O` are -13.7%, 2.69%, -51.9%, -18.5% and -2.36%.
Consider `COCCCNC(=O)C1(C)Cn2nc(-c3ccccc3)cc2C(=O)N1Cc1ccccc1OC` (stereo not given), for which the activity change, negative = inhibition in assay [1] is 0.366%; in assay [2], -0.127%; in assay [3], 2.16%; in assay [4], 1.09%; in assay [5], -2.08%.
Take `O=C1COc2ccc(-c3ccsc3)nc2CN1Cc1ccccc1`: the activity change, negative = inhibition in assay [1] was -16.4%; in assay [2], -8.6%; in assay [3], -7.83%; in assay [4] it was -14.7%; in assay [5], -8.91%.
`CC(C)(C)c1nn2c(SCC(=O)Nc3cccc(F)c3)nnc2[nH]c1=O`: the activity change, negative = inhibition in assay [1] was -4.46%; in assay [2], 3.45%; in assay [3] it was -6.58%; in assay [4], -11.8%; in assay [5], -10.7%.
`CN(CC(=O)Nc1ccc(Cl)cc1)S(=O)(=O)c1ccc2[nH]c3c(c2c1)CCCC3`: the activity change, negative = inhibition in assay [1] was -6.21%; in assay [2], 0.065%; in assay [3] it was -8.28%; in assay [4] it was -13.4%; in assay [5] it was -8.22%.
Take `Cc1nc(C)c(CC(=O)N2CCCC(C)(Cc3ccc4c(c3)OCO4)C2)s1` (stereo not given): the activity change, negative = inhibition in assay [1] was -10.5%; in assay [2], -6.24%; in assay [3], -2.42%; in assay [4], -17.4%; in assay [5], -15.7%.
With `COc1ccc(CNC(=O)Cn2nc3n(Cc4ccc(C)cc4)c(=O)c4ccccc4n3c2=O)cc1`, the activity change, negative = inhibition was 5.61% in assay [1]; 0.938% in assay [2]; 6.74% in assay [3]; 8.44% in assay [4]; 5.64% in assay [5].
On to `COc1cccc(CNC(=O)c2ccc3c(=O)nc4c(-c5ccc(Cl)cc5)n[nH]n4c3c2)c1`, for which the activity change, negative = inhibition is -8.53% in assay [1]; -1.77% in assay [2]; -0.729% in assay [3]; -2.94% in assay [4]; -3.94% in assay [5].
As to `O=C(Nc1cnc(-c2ccc(Cl)cc2)nc1)c1cccs1`, the activity change, negative = inhibition was -0.482% in assay [1]; -0.63% in assay [2]; -2.03% in assay [3]; 2.94% in assay [4]; -20.8% in assay [5].
Turning to `CCCn1ccnc1CN1CCCC12CCN(c1ccc(C(F)(F)F)cn1)CC2`, the activity change, negative = inhibition is -3.4% in assay [1]; 1.4% in assay [2]; -7.72% in assay [3]; -3.61% in assay [4]; 2% in assay [5].
Regarding `COc1cccc(N2CCN(S(=O)(=O)c3cccc(-c4nc(-c5ccccc5)no4)c3)CC2)c1`, the activity change, negative = inhibition in assay [1] was 11.6%; in assay [2], 0%; in assay [3], 9.89%; in assay [4], 5.27%; in assay [5], 4.09%.
Turning to `CN1C(=O)c2cc(C(=O)NCc3cccc(Cl)c3)nn2CC1(C)C(=O)NC1CCCCC1` (stereo not given), the activity change, negative = inhibition in assay [1] is 2.77%; in assay [2], 0.964%; in assay [3] it was 8.12%; in assay [4] it was 6.85%; in assay [5], -5.67%.
`O=C(COc1ccccc1)Nc1ccc2c(c1)CN(Cc1ccccc1F)C(=O)CO2`: the activity change, negative = inhibition in assay [1] was -8.63%; in assay [2], -3.83%; in assay [3], -9.24%; in assay [4], -16.8%; in assay [5], -6.08%.
In the case of `Cc1cc(C)cc(NC(=O)Cn2nc3n(CC(C)C)c(=O)c4ccccc4n3c2=O)c1`, the activity change, negative = inhibition was 2.72% in assay [1]; 0% in assay [2]; 5.28% in assay [3]; 2.73% in assay [4]; -2.79% in assay [5].
On to `CC(C)c1noc([C@@H]2C[C@H](NC(=O)c3ccc(F)cc3)CN2C)n1`, for which the activity change, negative = inhibition was -4.22% in assay [1]; -6.29% in assay [2]; -2.88% in assay [3]; -6.89% in assay [4]; -4.76% in assay [5].
With `COC(=O)c1ccc2c(c1)C1C=CCC1C(c1cccc3ccccc13)N2` (stereo not given), the activity change, negative = inhibition is -8.81% in assay [1]; -0.201% in assay [2]; -10.8% in assay [3]; -3.76% in assay [4]; -8.64% in assay [5].
As to `C=CC(C)(O)CC[C@H]1C(=C)CCC2[C@](C)(C(=O)O)CCC[C@@]21C` (stereo not given in full), the activity change, negative = inhibition in assay [1] was -0.468%; in assay [2] it was 3.19%; in assay [3], 11.5%; in assay [4], -11.4%; in assay [5], 3.39%.
For `CCC1(O)CCC12CCN(C(=O)Cc1ccccc1)CC2` (stereo not given), in that order: -2.93%, -3.06%, -1.78%, -10.9% and 8.73%.
In the same order, the values of `COc1ccc(S(=O)(=O)N2CCC[C@H]2C(=O)Nc2cc(C)cc(C)c2)cc1` are -1.9%, 3.24%, 9.66%, -17% and -6.11%.
With `COc1cccc(CN2Cc3cc(NC(=O)c4ccc(F)cc4F)ccc3OC(C)C2=O)c1` (stereo not given), the activity change, negative = inhibition in assay [1] is -8.52%; in assay [2] it was -6.68%; in assay [3], -7.55%; in assay [4] it was -10.5%; in assay [5] it was -13.3%.
For `O=S1(=O)NCC2(CCN(Cc3ccc(Cl)s3)CC2)Oc2ncccc21`, in that order: -5.2%, -4.62%, -1.51%, -7.79% and -0.957%.
As to `C=C1C(=O)O[C@@H]2C3C(=C(C)[C@@H](O)[C@@H](OC(=O)/C(=C/C)COC(C)=O)[C@@H]12)C(=O)[C@H]1O[C@@]31C` (stereo not given in full), the activity change, negative = inhibition in assay [1] is -5.27%; in assay [2] it was -7.87%; in assay [3], 5.04%; in assay [4], -11%; in assay [5], -8.64%.
Regarding `CCCn1c(=O)c2ccccc2n2c(SCC(=O)Nc3cc(Cl)ccc3OC)nnc12`, the activity change, negative = inhibition in assay [1] was determined as 5.04%; in assay [2], 0%; in assay [3], 11.3%; in assay [4] it was 2.5%; in assay [5], 7.25%.
On to `CCC(C)NC(=O)c1ccc2c(=O)n(CC(C)C)c3nn(Cc4ccc(Cl)cc4)c(=O)n3c2c1` (stereo not given), for which the activity change, negative = inhibition in assay [1] was 0.497%; in assay [2], 2.16%; in assay [3] it was 3.79%; in assay [4], -0.762%; in assay [5], 1.58%.
